Laboratory results published in the supplement of paper PMC8728848.
This is one part of the list.

How the values were obtained:
Assay in all cases: glycan array binding signal (z-score within array); higher = stronger binding
Conditions in all cases: glycan notation: IUPAC condensed, linker removed
[1] = molecular target: Neu5Ac(a2-6)Gal(b1-4)GlcNAc(b1-2)Man(a1-3)[Man(a1-6)]Man(b1-4)GlcNAc(b1-4)GlcNAc
Outline: (§1)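 Glycan array binding is given as a within-array Z-score, which can be read as non-binding when negative. The arrays, 3228 of them, came from the Consortium for Functional Glycomics database and were retained only where the protein sequence was available. Z-scores were averaged across arrays of the same protein sequence at different concentrations or buffers and across linkers.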

[2] = molecular target: Neu5Ac(a2-6)Gal(b1-4)GlcNAc(b1-2)Man(a1-3)[Neu5Ac(a2-3)Gal(b1-4)GlcNAc(b1-2)Man(a1-6)]Man(b1-4)GlcNAc(b1-4)GlcNAc
Outline: as §1

[3] = molecular target: Neu5Ac(a2-6)Gal(b1-4)GlcNAc(b1-2)Man(a1-3)[Neu5Ac(a2-6)Gal(b1-4)GlcNAc(b1-2)Man(a1-6)]Man(b1-4)GlcNAc(b1-4)GlcNAc
Outline: as §1

[4] = molecular target: Neu5Ac(a2-6)Gal(b1-4)GlcNAc(b1-2)Man(a1-3)[Neu5Ac(a2-6)Gal(b1-4)GlcNAc(b1-2)Man(a1-6)]Man(b1-4)GlcNAc(b1-4)[Fuc(a1-6)]GlcNAc
Outline: as §1

[5] = molecular target: Neu5Ac(a2-6)Gal(b1-4)GlcNAc(b1-2)Man(a1-6)Man(b1-4)GlcNAc(b1-4)GlcNAc
Outline: as §1

[6] = molecular target: Neu5Ac(a2-6)Gal(b1-4)GlcNAc(b1-2)Man(a1-6)[Gal(b1-4)GlcNAc(b1-2)Man(a1-3)]Man(b1-4)GlcNAc(b1-4)GlcNAc
Outline: as §1

[7] = molecular target: Neu5Ac(a2-6)Gal(b1-4)GlcNAc(b1-2)Man(a1-6)[GlcNAc(b1-2)Man(a1-3)]Man(b1-4)GlcNAc(b1-4)GlcNAc
Outline: as §1

[8] = molecular target: Neu5Ac(a2-6)Gal(b1-4)GlcNAc(b1-2)Man(a1-6)[Man(a1-3)]Man(b1-4)GlcNAc(b1-4)GlcNAc
Outline: as §1

[9] = molecular target: Neu5Ac(a2-6)Gal(b1-4)GlcNAc(b1-2)[Neu5Ac(a2-6)Gal(b1-4)GlcNAc(b1-4)]Man(a1-3)[GlcNAc(b1-4)][Neu5Ac(a2-6)Gal(b1-4)GlcNAc(b1-2)[Neu5Ac(a2-6)Gal(b1-4)GlcNAc(b1-6)]Man(a1-6)]Man(b1-4)GlcNAc(b1-4)GlcNAc
Outline: as §1

[10] = molecular target: Neu5Ac(a2-6)Gal(b1-4)GlcNAc(b1-2)[Neu5Ac(a2-6)Gal(b1-4)GlcNAc(b1-4)]Man(a1-3)[GlcNAc(b1-4)][Neu5Ac(a2-6)Gal(b1-4)GlcNAc(b1-4)Man(a1-6)]Man(b1-4)GlcNAc(b1-4)GlcNAc
Outline: as §1

[11] = molecular target: Neu5Ac(a2-6)Gal(b1-4)GlcNAc(b1-2)[Neu5Ac(a2-6)Gal(b1-4)GlcNAc(b1-6)]Man(a1-6)[Neu5Ac(a2-6)Gal(b1-4)GlcNAc(b1-2)Man(a1-3)][GlcNAc(b1-4)]Man(b1-4)GlcNAc(b1-4)GlcNAc
Outline: as §1

[12] = molecular target: Neu5Ac(a2-6)Gal(b1-4)GlcNAc(b1-3)Gal(b1-3)GlcNAc
Outline: as §1

[13] = molecular target: Neu5Ac(a2-6)Gal(b1-4)GlcNAc(b1-3)Gal(b1-4)GlcNAc
Outline: as §1

[14] = molecular target: Neu5Ac(a2-6)Gal(b1-4)GlcNAc(b1-3)Gal(b1-4)GlcNAc(b1-2)Man(a1-3)[Neu5Ac(a2-6)Gal(b1-4)GlcNAc(b1-3)Gal(b1-4)GlcNAc(b1-2)Man(a1-6)]GalNAc
Outline: as §1

[15] = molecular target: Neu5Ac(a2-6)Gal(b1-4)GlcNAc(b1-3)Gal(b1-4)GlcNAc(b1-3)Gal(b1-4)GlcNAc
Outline: as §1

[16] = molecular target: Neu5Ac(a2-6)Gal(b1-4)GlcNAc(b1-3)Gal(b1-4)GlcNAc(b1-3)Gal(b1-4)GlcNAc(b1-2)Man(a1-3)[Neu5Ac(a2-6)Gal(b1-4)GlcNAc(b1-3)Gal(b1-4)GlcNAc(b1-3)Gal(b1-4)GlcNAc(b1-2)Man(a1-6)]GalNAc
Outline: as §1

[17] = molecular target: Neu5Ac(a2-6)Gal(b1-4)GlcNAc(b1-3)Gal(b1-4)GlcNAc(b1-3)GalNAc
Outline: as §1

[18] = molecular target: Neu5Ac(a2-6)Gal(b1-4)GlcNAc(b1-3)Gal(b1-4)GlcNAc(b1-3)[Neu5Ac(a2-6)Gal(b1-4)GlcNAc(b1-3)Gal(b1-4)GlcNAc(b1-6)]GalNAc
Outline: as §1

[19] = molecular target: Neu5Ac(a2-6)Gal(b1-4)GlcNAc(b1-3)Gal(b1-4)GlcNAc(b1-6)[Gal(b1-3)]GalNAc
Outline: as §1

[20] = molecular target: Neu5Ac(a2-6)Gal(b1-4)GlcNAc(b1-3)Gal(b1-4)[Fuc(a1-3)]GlcNAc(b1-3)Gal(b1-4)[Fuc(a1-3)]GlcNAc
Outline: as §1

[21] = molecular target: Neu5Ac(a2-6)Gal(b1-4)GlcNAc(b1-3)GalNAc
Outline: as §1

[22] = molecular target: Neu5Ac(a2-6)Gal(b1-4)GlcNAc(b1-3)[Neu5Ac(a2-6)Gal(b1-4)GlcNAc(b1-6)]GalNAc
Outline: as §1

[23] = molecular target: Neu5Ac(a2-6)Gal(b1-4)GlcNAc(b1-6)GalNAc
Outline: as §1

[24] = molecular target: Neu5Ac(a2-6)Gal(b1-4)GlcNAc(b1-6)[Gal(b1-3)GlcNAc(b1-3)]Gal(b1-4)Glc
Outline: as §1

[25] = molecular target: Neu5Ac(a2-6)Gal(b1-4)GlcNAc(b1-6)[Gal(b1-3)]GalNAc
Outline: as §1

[26] = molecular target: Neu5Ac(a2-6)Gal(b1-4)GlcNAc6S
Outline: as §1

Neu5Ac(a2-6)GalNAc = molecular target: Neu5Ac(a2-6)GalNAc
Outline: as §1

[27] = molecular target: Neu5Ac(a2-6)GalNAc(b1-4)GlcNAc
Outline: as §1

[28] = molecular target: Neu5Ac(a2-6)GalNAc(b1-4)GlcNAc6S
Outline: as §1

[29] = molecular target: Neu5Ac(a2-6)GlcNAc(b1-4)GlcNAc
Outline: as §1

[30] = molecular target: Neu5Ac(a2-6)GlcNAc(b1-4)GlcNAc(b1-4)GlcNAc
Outline: as §1

B1: Cohesin-hDC-ASGPR (Homo sapiens) (protein)
chain: LDDLDAVRIKVDTVNAKPGDTVRIPVRFSGIPSKGIANCDFVYSYDPNVLEIIEIEPGDIIVDPNPDKSFDTAVYPDRKIIVFLFAEDSGTGAYAITKDGVFATIVAKVKEGAPNGLSVIKFVEVGGFANNDLVEQKTQFFDGGANVGDTTEPATPTTPVTTPTTTDDLDAASQNSKFQRDLVTLRTDFSNFTSNTVAEIQALTSQGSSLEETIASLKAEVEGFKQERQAGVSELQEHTTQKAHLGHCPHCPSVCVPVHSEMLLRVQQLVQDLKKLTCQVATLNNNASTEGTCCPVNWVEHQDSCYWFSHSGMSWAEAEKYCQLKNAHLVVINSREEQNFVQKYLGSAYTWMGLSDPEGAWKWVDGTDYATGFQNWKPGQPDDWQGHGLGGGEDCAHFHPDGRWNDDVCQRPYHWVCEAGLGQTSQESHHHHHH
[1]
  glycan array binding signal (z-score): -0.519
[2]
  glycan array binding signal (z-score): -0.471
[3]
  glycan array binding signal (z-score): -0.469
[4]
  glycan array binding signal (z-score): -0.509
[5]
  glycan array binding signal (z-score): -0.524
[6]
  glycan array binding signal (z-score): -0.511
[7]
  glycan array binding signal (z-score): -0.387
[8]
  glycan array binding signal (z-score): -0.519
[9]
  glycan array binding signal (z-score): -0.485
[10]
  glycan array binding signal (z-score): -0.498
[11]
  glycan array binding signal (z-score): -0.505
[12]
  glycan array binding signal (z-score): -0.422
[13]
  glycan array binding signal (z-score): -0.5
[14]
  glycan array binding signal (z-score): 0.021
[15]
  glycan array binding signal (z-score): -0.502
[16]
  glycan array binding signal (z-score): 0.226
[17]
  glycan array binding signal (z-score): -0.493
[18]
  glycan array binding signal (z-score): -0.157
[19]
  glycan array binding signal (z-score): -0.49
[20]
  glycan array binding signal (z-score): -0.458
[21]
  glycan array binding signal (z-score): 1.91
[22]
  glycan array binding signal (z-score): -0.436
[23]
  glycan array binding signal (z-score): -0.461
[24]
  glycan array binding signal (z-score): -0.484
[25]
  glycan array binding signal (z-score): -0.393
[26]
  glycan array binding signal (z-score): -0.359
Neu5Ac(a2-6)GalNAc
  glycan array binding signal (z-score): 2.69
[27]
  glycan array binding signal (z-score): 2.6
[28]
  glycan array binding signal (z-score): 2.3
[29]
  glycan array binding signal (z-score): -0.492
[30]
  glycan array binding signal (z-score): -0.52
